In the supplement of paper PMC4604168 (melanoma cell lines):
Some of the results follow. Most values come without repeats; read them as rough.

How the values were obtained:
Test in all cases: cell count relative to DMSO control; melanoma cells; higher = more viable cells
Settings in all cases: library dose: standard library concentration; 72 h
G361 = tested on: G361
IPC-298 = tested on: IPC-298
IST-MEL1 = tested on: IST-MEL1
LB2518-MEL = tested on: LB2518-MEL
LOXIMVI = tested on: LOXIMVI
MEL-HO = tested on: MEL-HO
MZ2-MEL = tested on: MZ2-MEL
MeWo = tested on: MeWo
RPMI7951 = tested on: RPMI7951
RVH-421 = tested on: RVH-421
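Further: cells treated in 1,536-well plates, then fixed and DAPI-stained, with nuclei counted from automated high-throughput microscope images.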

| Compound | cell count (G361) [%] | cell count (IPC-298) [%] | cell count (IST-MEL1) [%] | cell count (LB2518-MEL) [%] | cell count (LOXIMVI) [%] | cell count (MEL-HO) [%] | cell count (MZ2-MEL) [%] | cell count (MeWo) [%] | cell count (RPMI7951) [%] | cell count (RVH-421) [%] |
| --- | --- | --- | --- | --- | --- | --- | --- | --- | --- | --- |
| C=C(c1ccc(C(=O)O)cc1)c1cc2c(cc1C)C(C)(C)CCC2(C)C [Bexarotene] + NC(=O)Nc1cc(-c2cccc(F)c2)sc1C(=O)N[C@H]1CCCNC1 [AZD7762] (first compound 10 µM, partner dose 0.1 µM) | 85 | 89.9 | 92.4 | 73.1 | 96.5 | 85.9 | 81.9 | 95.9 | 43.5 | 127 |
| CN(c1ncccc1CNc1nc(Nc2ccc3c(c2)CC(=O)N3)ncc1C(F)(F)F)S(C)(=O)=O + C=C(c1ccc(C(=O)O)cc1)c1cc2c(cc1C)C(C)(C)CCC2(C)C [Bexarotene] (first compound 0.4 µM, partner dose 10 µM) | 70.6 | 73.7 | 72.9 | 93.8 | 98.3 | 77.9 | 75.5 | 82.9 | 49.7 | 79.1 |
| CCCS(=O)(=O)Nc1ccc(F)c(C(=O)c2c[nH]c3ncc(Cl)cc23)c1F + O=C(O)c1ccc(-c2c[nH]c3ncc(-c4ccccc4)cc23)cc1C1CCCC1 [GSK650394] (first compound 0.4 µM, partner dose 0.8 µM) | 55.3 | 69.8 | 61.3 | 78.4 | 64.9 | 62.3 | 72.9 | 95.3 | 76.6 | 68.3 |
| CN(c1ncccc1CNc1nc(Nc2ccc3c(c2)CC(=O)N3)ncc1C(F)(F)F)S(C)(=O)=O + COC(=O)c1sccc1S(=O)(=O)Nc1ccc(Nc2ccccc2)cc1OC [GSK0660] (first compound 0.4 µM, partner dose 5 µM) | 75.4 | 92.5 | 79.9 | 80.2 | 109 | 81 | 58 | 73.5 | 65.8 | 52 |
| NC1(c2ccc(-c3nc4ccn5c(=O)[nH]nc5c4cc3-c3ccccc3)cc2)CCC1 + O=C(O)[C@@H]1[O][Sb](=[O])([O][Sb]2(=[O])[O][C@H]([C@H](O)CO)[C@H](O)[C@H](C(=O)O)[O]2)[O][C@H]([C@H](O)CO)[C@@H]1O [stibogluconate] (first compound 2 µM, partner dose 10 µM) | 124 | 92.4 | 97.6 | 102 | 109 | 88.1 | 116 | 74.1 | 84.5 | 99.1 |
| C=C(c1ccc(C(=O)O)cc1)c1cc2c(cc1C)C(C)(C)CCC2(C)C [Bexarotene] + Nc1cccc2c1CN(C1CCC(=O)NC1=O)C2=O [lenalidomide] (first compound 10 µM, partner dose 5 µM) | 78.8 | 83.5 | 84.5 | 102 | 77 | 109 | 67.9 | 98.8 | 54.1 | 74.5 |
| CCCS(=O)(=O)Nc1ccc(F)c(C(=O)c2c[nH]c3ncc(Cl)cc23)c1F + COC(=O)c1sccc1S(=O)(=O)Nc1ccc(Nc2ccccc2)cc1OC [GSK0660] (first compound 0.4 µM, partner dose 5 µM) | 68.5 | 74.2 | 93.6 | 85 | 105 | 82.4 | 69.1 | 97.3 | 99.5 | 65.2 |
| CN(c1ncccc1CNc1nc(Nc2ccc3c(c2)CC(=O)N3)ncc1C(F)(F)F)S(C)(=O)=O + C[C@@H]1CCN(C(=O)CC#N)C[C@@H]1N(C)c1ncnc2[nH]ccc12 [CP690550] (first compound 0.4 µM, partner dose 5 µM) | 107 | 128 | 86.1 | 88 | 86.3 | 108 | 110 | 116 | 67.4 | 75.9 |
| C=C(c1ccc(C(=O)O)cc1)c1cc2c(cc1C)C(C)(C)CCC2(C)C [Bexarotene] + N#Cc1c(O)c2c(-c3ccc(-c4ccccc4O)cc3)csc2[nH]c1=O [A769662] (first compound 10 µM, partner dose 10 µM) | 81.3 | 77.8 | 87.3 | 98.6 | 127 | 79.5 | 82.1 | 75.6 | 69.8 | 94.8 |
| NC1(c2ccc(-c3nc4ccn5c(=O)[nH]nc5c4cc3-c3ccccc3)cc2)CCC1 + Nc1cccc2c1CN(C1CCC(=O)NC1=O)C2=O [lenalidomide] (first compound 2 µM, partner dose 5 µM) | 88 | 102 | 91.6 | 85.2 | 93.7 | 73.4 | 96.1 | 93.7 | 74.1 | 81.3 |
| CCCS(=O)(=O)Nc1ccc(F)c(C(=O)c2c[nH]c3ncc(Cl)cc23)c1F + CCCCCCCCCCCC1=C(O)C(=O)C=C(O)C1=O [Embelin] (first compound 0.4 µM, partner dose 6 µM) | 69.3 | 85.7 | 86 | 85.4 | 92.1 | 82.9 | 73.8 | 123 | 102 | 102 |
| CN(c1ncccc1CNc1nc(Nc2ccc3c(c2)CC(=O)N3)ncc1C(F)(F)F)S(C)(=O)=O + COc1cc(Nc2ncc(F)c(Nc3ccc4c(n3)NC(=O)C(C)(C)O4)n2)cc(OC)c1OC [Tamatinib] (first compound 0.4 µM, partner dose 2 µM) | 58.2 | 87.7 | 53.6 | 69 | 12.7 | 75.5 | 41.9 | 72.1 | 16.6 | 58.4 |
| C=C(c1ccc(C(=O)O)cc1)c1cc2c(cc1C)C(C)(C)CCC2(C)C [Bexarotene] + Oc1nc(-c2ccc(C(F)(F)F)cc2)nc2c1CSCC2 [XAV939] (first compound 10 µM, partner dose 10 µM) | 77.8 | 87.9 | 95.6 | 105 | 121 | 82.6 | 80.7 | 90.2 | 69.6 | 72.4 |
| NC1(c2ccc(-c3nc4ccn5c(=O)[nH]nc5c4cc3-c3ccccc3)cc2)CCC1 + CC(C)C[C@H](NC(=O)[C@H](Cc1ccccc1)NC(=O)c1cnccn1)B(O)O [Bortezomib] (first compound 2 µM, partner dose 0.005 µM) | 1.16 | 12.6 | 5.86 | 1.79 | 27.2 | 31.9 | 5.55 | 11 | 3.95 | 84.4 |
| NC1(c2ccc(-c3nc4ccn5c(=O)[nH]nc5c4cc3-c3ccccc3)cc2)CCC1 + C=CCn1c(=O)c2cnc(Nc3ccc(N4CCN(C)CC4)cc3)nc2n1-c1cccc(C(C)(C)O)n1 [MK1775] (first compound 2 µM, partner dose 0.1 µM) | 82.7 | 99.9 | 68.5 | 67.4 | 67.8 | 63.3 | 107 | 64.2 | 66.7 | 81.1 |
| NC1(c2ccc(-c3nc4ccn5c(=O)[nH]nc5c4cc3-c3ccccc3)cc2)CCC1 + COc1ccc(Cl)c(Nc2nc3ccccc3nc2NS(=O)(=O)c2cccc(NC(=O)C(C)(C)N)c2)c1 [XL147] (first compound 2 µM, partner dose 4 µM) | 75.1 | 68 | 49.8 | 71.2 | 75.5 | 55.1 | 80.7 | 69.3 | 84.2 | 69.1 |
| C=C(c1ccc(C(=O)O)cc1)c1cc2c(cc1C)C(C)(C)CCC2(C)C [Bexarotene] + COc1cc(N2CCC(N3CCN(C)CC3)CC2)ccc1Nc1ncc(Cl)c(Nc2ccccc2S(=O)(=O)C(C)C)n1 [NVP-TAE684] (first compound 10 µM, partner dose 0.4 µM) | 68.2 | 90.5 | 94.4 | 96.4 | 108 | 84.4 | 94.5 | 68.7 | 75.8 | 85.4 |
| NC1(c2ccc(-c3nc4ccn5c(=O)[nH]nc5c4cc3-c3ccccc3)cc2)CCC1 + CCN(CC)CCCCNc1ncc2cc(-c3cc(OC)cc(OC)c3)c(NC(=O)NC(C)(C)C)nc2n1 [PD173074] (first compound 2 µM, partner dose 0.5 µM) | 92.8 | 93.4 | 97.7 | 103 | 79.7 | 84.9 | 95.9 | 87.9 | 95 | 97.9 |
| CCCS(=O)(=O)Nc1ccc(F)c(C(=O)c2c[nH]c3ncc(Cl)cc23)c1F + CCN(CC)CCCCNc1ncc2cc(-c3cc(OC)cc(OC)c3)c(NC(=O)NC(C)(C)C)nc2n1 [PD173074] (first compound 0.4 µM, partner dose 0.5 µM) | 82.5 | 90.4 | 110 | 104 | 94.7 | 109 | 102 | 75.2 | 128 | 94.2 |
| CS(=O)(=O)c1ccc(C(=O)Nc2ccc(Cl)c(-c3ccccn3)c2)c(Cl)c1 [vismodegib] + Nc1ncn([C@H]2C[C@H](O)[C@@H](CO)O2)c(=O)n1 [decitabine] (first compound 5 µM, partner dose 0.5 µM) | 113 | 63.6 | 79.3 | 99.2 | 111 | 98.2 | 97.4 | 75.9 | 97.5 | 121 |
| CS(=O)(=O)c1ccc(C(=O)Nc2ccc(Cl)c(-c3ccccn3)c2)c(Cl)c1 [vismodegib] + CO[C@H]1C[C@@H]2CC[C@@H](C)[C@@](O)(O2)C(=O)C(=O)N2CCCC[C@H]2C(=O)O[C@H]([C@H](C)C[C@@H]2CC[C@@H](OCCO)[C@H](OC)C2)CC(=O)[C@H](C)/C=C(\C)[C@@H](O)[C@@H](OC)C(=O)[C@H](C)C[C@H](C)/C=C/C=C/C=C/1C [everolimus] (first compound 5 µM, partner dose 0.1 µM) | 66.3 | 64.8 | 87.5 | 61.5 | 72.7 | 60.7 | 71.4 | 75.9 | 55.7 | 188 |
| CS(=O)(=O)c1ccc(C(=O)Nc2ccc(Cl)c(-c3ccccn3)c2)c(Cl)c1 [vismodegib] + C#Cc1cccc(Nc2ncnc3cc(OCCOC)c(OCCOC)cc23)c1 [erlotinib] (first compound 5 µM, partner dose 4 µM) | 70.9 | 66 | 79.6 | 60 | 84.9 | 75.4 | 68.9 | 69.6 | 56.8 | 69.6 |
